About 6,900 (2%) of roughly 340,000 compounds were called active. No stated cut-off is given here; in the data, active means inhibition above about 30%; inactive means below that, where a call was filed. Only a part is listed here, and it is no random draw. The source gives no active or inactive call for entries shown without one.
target: D(2) dopamine receptor (Homo sapiens) (UniProt P14416); assay: HTS Assay for Allosteric Antagonists of the Human D2 Dopamine Receptor: Primary Screen for Antagonists; settings: HEK293 TREx D2 cells, calcium flux, dopamine EC80; at 10 µM; stronger effect = higher value; further: 0% is about no effect
UniProt P14416, sequence (P14416 whole entry, looked up): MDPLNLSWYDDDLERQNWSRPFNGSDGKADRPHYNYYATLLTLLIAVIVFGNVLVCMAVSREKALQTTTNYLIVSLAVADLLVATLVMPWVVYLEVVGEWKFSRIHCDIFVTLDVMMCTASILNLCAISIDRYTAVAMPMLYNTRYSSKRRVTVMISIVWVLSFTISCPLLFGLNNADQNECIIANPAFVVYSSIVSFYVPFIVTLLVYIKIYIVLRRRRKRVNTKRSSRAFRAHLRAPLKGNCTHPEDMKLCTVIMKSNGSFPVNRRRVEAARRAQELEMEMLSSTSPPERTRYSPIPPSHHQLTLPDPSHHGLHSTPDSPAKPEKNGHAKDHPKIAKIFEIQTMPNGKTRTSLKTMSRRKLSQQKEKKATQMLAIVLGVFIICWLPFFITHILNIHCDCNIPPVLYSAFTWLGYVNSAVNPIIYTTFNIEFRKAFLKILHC
How it was run: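 Cells plated overnight at 30 C with tetracycline; no-wash calcium dye, 30–90 min RT; 10 s baseline; compound pinned; 180 s read; EC80 dopamine added; another 180 s read.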

SMILES	inhibition
CCn1cc(C(=O)N2CCN(c3cc(C)ccc3C)CC2)c(=O)c2cc(S(=O)(=O)N3CCCCC3)ccc21	-1.79%
CCOc1ccc(-n2nc(CO)c(C(=O)NCc3cccs3)n2)cc1	12%
COC(=O)c1ccc(CSc2ccccc2C)o1	active: 34.1%
CC(Oc1ccc(Br)cc1)C(=O)Nc1ncn[nH]1 (configuration not stated)	18%
Cc1cc(N2CCN(c3cccc(C(F)(F)F)c3)CC2)n2nc(-c3ccccc3)nc2n1	-1.56%
CCc1cccc(C)c1NC(=O)CCn1c(=O)c2cccn2c2ccccc21	-6.12%
CCCN1C2CCCC1CC(NC(=O)c1ccccc1)C2 (configuration not stated)	active: 30.1%
Cc1ccc(NS(=O)(=O)c2cc3[nH]c(=O)c(=O)[nH]c3cc2C)cc1Cl	7.17%
CCOc1ccc(C(=O)Nc2c(C(=O)N3CCN(c4ccccc4F)CC3)oc3ccccc23)cc1	1.66%
Cc1ccc(NC(=O)N2CC3CCCN3c3ccccc32)c(C)c1 (configuration not stated)	13.8%
Cc1ccc(-c2cc(C(=O)N(Cc3ccc(C(C)(C)C)cc3)Cc3ccco3)no2)cc1	-5.29%
Nc1[nH]nc2ncc3cc4ccccc4nc3c12	active: 59.5%
COc1ccc(NC(=O)c2ccco2)cc1NC(=O)COc1ccc(Cl)c(C)c1	12.4%
CC1CCCC(C)N1C(=O)Cn1cc(/C=C2/C(=O)Nc3ccccc32)c2ccccc21 (configuration not stated)	active: 32.3%
CN(C)c1ccc(-c2nc(-c3ccco3)no2)cc1[N+](=O)[O-]	-13.2%
CCN(CC)S(=O)(=O)c1ccc2c(c1)N(CC(=O)N1CCN(c3cccc(OC)c3)CC1)C(=O)CO2	-1.58%
Cc1c(Nc2nc3ccccc3n3c(C)nnc23)cccc1C(=O)O	-9.98%
Cc1ccc(Cl)cc1-n1ncc2c(NCCCc3ccccc3)ncnc21	7.55%
CCc1nonc1NC(=O)c1oc2ccc(C)cc2c1C	-3.02%
CCCn1c(SCC(=O)NCc2ccco2)nnc1C(C)C	active: 46.5%
CCOc1ccc(N2C(=O)c3n[nH]c(-c4cccs4)c3C2c2cccc(F)c2)cc1 (configuration not stated)	-11%

SMILES	inhibition
COc1ccc(-c2cc(-c3ccc4c(c3)NC(=O)CO4)nc3c2COc2ccc(F)cc2-3)cc1	1.43%
CCOC(=O)c1ccc(-n2c(-c3ccc(C)cc3)c(C)n3c4c(=O)n(C)c(=O)n(C)c4nc23)cc1	4.65%
Cc1nc2oc3ccccc3c(=O)c2c(=O)n1Cc1ccccc1	active: 31.1%
O=C(C1CC1)N1CCc2cc(Br)cc(S(=O)(=O)N3CCN(c4ccccn4)CC3)c21	active: 46.4%
CCOC(=O)CSc1nc2cc3c(cc2c(=O)n1CCCC(=O)NCCc1ccc(OC)c(OC)c1)OCO3	-9.79%
CCOC(=O)c1sc(N2C(=O)c3oc4ccc(C)cc4c(=O)c3C2c2ccccc2F)nc1C (configuration not stated)	-3.5%
CCc1cccc(NS(=O)(=O)c2ccc3c(c2)n(C)c(=O)c(=O)n3C)c1	-1.79%
Cc1ccc(CNC(=O)CCCn2nc(C)c3c(C)n(-c4ccccc4)nc3c2=O)cc1	-14.2%
CCOC(=O)c1c(NC(=O)CSc2cn(CCNC(=O)c3ccc(OC)c(OC)c3)c3ccccc23)sc2c1CCCC2	13.5%
CCCN(C(=O)c1cc2c(=O)oc3ccccc3c2s1)c1cccc(Cl)c1	9.15%
CCOC(=O)N1CCN(C(=O)CN(c2cccc(Cl)c2)S(=O)(=O)c2ccccc2)CC1	-0.737%
CCCc1cc(=O)n2[nH]c(NC(=O)c3ccccc3Cl)nc2n1	11.4%
CCOC(=O)c1ccc(N2C(=O)c3[nH]nc(-c4ccc(OC)cc4)c3C2c2ccccc2Cl)cc1 (configuration not stated)	13.7%
Cc1ccc(NC(=O)N2CCc3cc(S(=O)(=O)N4CCC(C)CC4)ccc32)cc1F	1.84%
COc1ccc(C2c3c(n(C)c4ccccc34)C(=O)N2CC(=O)Nc2cc(Cl)ccc2C)cc1 (configuration not stated)	1.27%
O=C(Nc1ccccc1)N(Cc1cccs1)c1ccc(F)cc1	-18.5%
COC(=O)c1ccc(NC(=O)CC2Nc3cc(C)c(C)cc3NC2=O)cc1 (configuration not stated)	-9.77%
Cc1cc(C)n(-c2nc3ccccc3nc2Nc2ccc(Cl)c(Cl)c2)n1	8.52%
COc1ccccc1NCc1cccn1-c1nnc(N2CCCCCC2)s1	-6.96%
Cc1cc(C)cc(OCC(=O)NC(Cc2c[nH]c3ccccc23)C(=O)O)c1 (configuration not stated)	20.6%
CCOc1ccc(S(=O)(=O)Nc2ccc3oc(C)c(C(=O)OC(C)C)c3c2)cc1	17.9%

SMILES	inhibition
Cc1cccc(OCC(=O)Nc2c(C(=O)N3CCN(c4ccccc4F)CC3)oc3ccccc23)c1	0.756%
CCCCC(=O)OCc1cc(=O)n2nc(C3CCCCC3)sc2n1	14.6%
CCC1CN(C(=O)Nc2cc(C)ccc2OC)c2cc(Cl)ccc2O1 (configuration not stated)	0.872%
Cc1ccc(NC(=O)CSc2ccc3nnc(CCNS(=O)(=O)c4ccccc4)n3n2)cc1Cl	5.94%
O=C(Nc1ccccc1)Nc1nc2ccccc2s1	active: 38.1%
Cc1ccc(Cl)cc1NC(=O)N1CCC(CN2CCCCCC2)CC1	3.56%
COc1ccccc1N1CCN(C(=O)c2ccoc2C)CC1	active: 35%
Cc1ccc2cc(CN(C)C(=O)c3cccc(Cl)c3)c(=O)[nH]c2c1	6.21%
Cc1ccccc1NC(=O)c1cccc2c(=O)c3c([nH]c12)CCCC3	-2.18%
COc1cc(C(=O)NC2CC3CCCC(C2)N3Cc2ccccc2)cc(OC)c1OC (configuration not stated)	active: 83.7%
CCCCNc1nc2c(c(=O)n(C)c(=O)n2C)n1CC(O)COc1ccccc1C (configuration not stated)	-2.49%
O=C(Nc1ccc(F)c(Cl)c1)C1CCN(S(=O)(=O)c2ccc3[nH]c(=O)ccc3c2)CC1	-18.6%
O=C(COc1ccc(Br)cc1F)NC1CCN(Cc2ccccc2)CC1	active: 52.9%
CCOC(=O)c1c(NC(=O)c2ccc(Br)cc2)sc2c1CCCC2	6.85%
COc1cccc(N2CCN(Cc3nc(N)nc(N4CCCc5ccccc54)n3)CC2)c1	active: 58.9%
O=C(O)c1cccc(Nc2ncnc3ccc(Br)cc23)c1	16.4%
Cc1nn(C)c2c1c(C(F)(F)F)cc(=O)n2CC(=O)N1CCCCC1	8.01%
Cc1ccc(C(=O)Nc2nc3n(n2)C(c2ccc(F)cc2)C=C(c2ccccc2)N3)cc1 (configuration not stated)	-8.93%
CCOc1ccccc1-n1nnc(-c2nc(-c3ccccc3C)no2)c1C	-8.76%
Cc1ccc2nc(-c3cccc(NC(=O)c4ccc(Br)o4)c3)oc2c1	-0.718%

From PubChem BioAssay AID485344 (National Center for Advancing Translational Sciences (NCATS), 2010)
